Measured values as given in the supplement of paper PMC3334620.
Over roughly 33,000 sequences, “E-score (-0.5 to 0.5)” has its median near -0.012; the highest 2% begin near 0.27. Some of the results follow.

Target: T1, Vhr1 (UniProt P40522)
T1 sequence: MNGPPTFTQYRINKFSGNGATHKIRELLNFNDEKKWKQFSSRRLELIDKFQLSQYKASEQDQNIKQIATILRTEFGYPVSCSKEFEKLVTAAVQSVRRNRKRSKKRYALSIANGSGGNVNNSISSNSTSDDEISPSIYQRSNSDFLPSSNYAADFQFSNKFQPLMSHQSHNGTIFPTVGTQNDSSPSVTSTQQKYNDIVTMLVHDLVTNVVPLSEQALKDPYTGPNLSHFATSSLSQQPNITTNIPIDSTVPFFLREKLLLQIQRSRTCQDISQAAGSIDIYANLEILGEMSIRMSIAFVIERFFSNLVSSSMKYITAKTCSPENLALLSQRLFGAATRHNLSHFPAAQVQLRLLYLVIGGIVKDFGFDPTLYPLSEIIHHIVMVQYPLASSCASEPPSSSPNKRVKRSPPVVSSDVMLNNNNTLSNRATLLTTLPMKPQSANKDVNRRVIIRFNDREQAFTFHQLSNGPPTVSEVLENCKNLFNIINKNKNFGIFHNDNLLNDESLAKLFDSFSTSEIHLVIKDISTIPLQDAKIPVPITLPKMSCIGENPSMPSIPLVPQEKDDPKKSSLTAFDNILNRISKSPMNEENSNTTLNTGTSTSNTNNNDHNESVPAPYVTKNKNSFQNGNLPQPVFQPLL
Test: PBM E-score (8-mer binding enrichment) (E-score (-0.5 to 0.5)); higher = stronger / more preferred TF binding; most listed sequences are background and not binding sites
Settings: protein concentration: 200 nM; construct: GST-full length
Description: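 Universal 'all 10-mer' protein binding microarrays (Agilent AMADID 015681) probed with GST-tagged S. cerevisiae TFs (full-length or DBD) made by in vitro transcription/translation (PURExpress), about 100-200 nM. Bound TF was detected with fluorescent anti-GST. Each ungapped 8-mer (which stands for itself and its reverse complement) is scored by the PBM enrichment score (E-score), a modified Wilcoxon-Mann-Whitney statistic from -0.5 to +0.5, computed with the Universal PBM Analysis Suite. Scale: above 0.35 generally sequence-specific binding.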

Sequence | PBM E-score
ATGTTCAG | -0.102
ATAAGAAG | -0.11
ACAAGAGT | 0.108
GAGGGGGC | -0.155
ATACGCCC | -0.103
CATTACTA | 0.107
AGGTTCTA | -0.0802
ATCCACGA | 0.129
CAAGCAGC | -0.0665
ACGGTCTA | -0.163
ACGTATTG | -0.0593
GCACGGAC | -0.112
TGCTTACA | 0.0554
CGCGTCTA | -0.0285
AGCAACAG | -0.0889
GCTCCGGA | 0.0316
ATACATCC | 0.191
CAATTTCC | -0.195
GATGCAGC | -0.101
CAACTAGG | 0.0954
AGCGCTGG | 0.0676
AGGCCGAT | -0.117
AACTTCCA | -0.112
AATCCATT | 0.113
CGGGAGCA | -0.121

Sequence | PBM E-score
CACTTTGC | -0.0419
GGTGCAGA | -0.206
ATGAACCC | 0.225
TATGTCCA | -0.0889
GCAGCAAC | 0.126
AAGCTAAC | 0.0321
ATATTGAG | 0.106
CTCCCTGA | 0.109
CACCAAAG | -0.0664
CTACCTGA | -0.00401
CCGTCTTC | 0.0464
AATTGCCT | -0.131
AGACCCAT | 0.157
ACGGAGAA | -0.0931
AAATAGTC | 0.0418
GAGAAGGC | -0.24
CGAGGTGA | 0.107
CCATGGGG | 0.0665
CACTCCCC | 0.0503
GGAATCTA | -0.0388
CACTCTGG | 0.0343
AGCCAATA | -0.156
CACCACCC | 0.0779
ATGATCTC | -0.00737
CAACCGCA | 0.0762

Sequence | PBM E-score
CGTACTTA | -0.0118
AACTTGGG | 0.0097
GACCGCCA | 0.0067
CGTGAGTA | 0.21
AAGCTCGC | -0.00364
GTTTGCAA | 0.175
AGGTTGTC | -0.0977
CGACGCTC | -0.0422
ATATTTTC | 0.14
AAGGCCTC | -0.215
ACGCTGTC | -0.122
CTGCACAC | 0.045
ACTCAAGA | 0.0906
CTGGGCCC | -0.251
CTACGAGC | -0.0087
CCTAGTCG | 0.0391
AACGACCG | -0.0534
AGATAGCG | -0.114
AGTAAATA | -0.0184
ATCTCTGC | 0.0623
ATGGCTTG | 0.0554
ATTTACTG | 0.0372
AACCTGTG | 0.02
AATTGGGA | -0.0558
TAACGCTA | -0.116

Sequence | PBM E-score
AACAATGT | -0.00812
CGATTCGA | 0.255
CCGCGCAA | -0.026
AATGCCCC | -0.148
ACACTAGT | 0.0508
GATAGCTA | -0.0679
CGACTGAC | -0.135
GTACCAGA | -0.0612
CAAATATC | 0.0967
CCCGTACA | -0.13
ACGCTTCT | -0.117
GAGCTGGA | -0.0872
GCCAACAC | -0.015
GTGCAGTA | 0.0719
CAATCTTC | 0.104
ATCTCGTG | -0.111
ATTCCCCC | -0.205
TGGTTTAA | -0.113
CACGCCCC | 0.0402
ATACGCAG | 0.0799
ATCACTCC | 0.0947
CTTTAATA | 0.0826
ACATGCAG | -0.0126
CTACCGAG | -0.0848
CTAGTGGC | -0.14

Sequence | PBM E-score
AACAGGTA | -0.099
AATAGGCC | -0.259
AGACAAAC | -0.0742
CGTCGAAC | -0.159
CCACCCGG | 0.0735
AACAAACT | 0.0344
ACTCAAAG | 0.0428
CAAACGAA | -0.127
ATGAGGTC | 0.0111
AGTGGTCA | -0.0615
CCGGATGA | 0.0435
AAGCGTGA | 0.0681
AGCAAGCC | -0.0172
CCTCGACC | -0.0347
CTCAGCGA | 0.0396
GTTGTCTA | -0.0562
ATCGACAG | 0.0207
CACACAGA | 0.263
AGCCTAAG | -0.262
TATCGATA | 0.193
ACCTGGAT | 0.103
GGAGTAGA | 0.00284
ACGCGTAT | 0.0675
ACTGTCCA | -0.208
CCAAGACG | -0.141

Sequence | PBM E-score
CTTGTCGA | -0.218
AGCTGGTC | -0.172
AACCTATA | 0.00671
CGTCTAAG | -0.0385
AGAGCCAT | 0.0261
GCCAGTCC | -0.0716
CTGCACTC | 0.0835
AGACCCCG | 0.177
CAGTTCCG | 0.0373
AAATTTGG | -0.188
ATAAGCGC | 0.057
ATGAGTCC | 0.389
ACTGTTTC | -0.0525
AGCCCGAC | 0.0296
ACCTATCT | -0.0256
GACCCCTA | -0.176
GATCGAGC | 0.141
CCCACGTC | -0.0264
GACAAAGC | -0.181
AATGAGGG | 0.0336
CTTGCACA | 0.0429
CGCGGCAG | 0.1
TGATCACA | 0.159
AGCAATGA | 0.0423
GGAGTTCA | -0.0497

Sequence | PBM E-score
AGCAACGG | 0.0294
ATCGGTTG | 0.0695
ATGAGGCG | -0.0535
ACGATAGT | 0.156
CTGGGGGC | -0.332
TAGAACTA | -0.112
CGGCAATA | -0.0777
AGCCAGGC | 0.17
CCTACGTA | -0.0698
CTGGATCA | 0.0971
AAATGGCG | -0.305
CGAATTCA | -0.0677
AATCTCAT | 0.113
CTAGGGGA | -0.122
CAGTCACA | 0.348
CCGTCTGC | -0.0839
AAATGTCG | -0.131
AGCCAAAT | -0.0105
TATTACAA | -0.0398
ACAACGAG | 0.0559
ATGCGGTA | 0.0789
TCGTCGCA | 0.111
